PMC12040169 (PLOS Biology, 2025)
The list shows a part of the results.

tested on: T1, C. trachomatis L2/434/Bu expressing GFP (CTL2-GFP); set-up: species or system HeLa; C. trachomatis total inclusion area by high-content imaging, normalised to DMSO; conditions: total inclusion area; 28.5 h, 10 µM; inhibitor
T1 construct: L2/434/Bu GFP intracellular growth in HeLa cells
In short: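 Post-fluorescence-read fixation, DNA staining with Hoechst and high-content imaging; GFP inclusion area and number per well, and nuclei counts, used as proxies for bacterial growth and host viability.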

| SMILES | % of control remaining |
| --- | --- |
| Cc1nc(S(=O)(=O)Cc2nccn2C)n(CC2CCCO2)c1C (stereo not drawn) [CBK304012] | 122.082 |
| Cc1ccc2oc3c(c(=O)c2c1)C(c1ccc(OCC(N)=O)cc1)N(Cc1ccc2c(c1)OCO2)C3=O (stereo not drawn) [CBK267189] | 111.234 |
| CN(c1ccc(C(=O)Nc2cccc(C(=O)O)c2)cc1)S(=O)(=O)c1ccccc1 [CBK265729] | 116.596 |
| Cc1cc(C)n(-c2ccc3nnc(CCCC(=O)O)n3n2)n1 [CBK307630] | 93.2015 |
| c1ccc2c(c1)CCC[C@H]2Oc1cncc(N2CCNCC2)n1 [CBK172388G] | 67.3061 |
| CC(C)Nc1nccnc1Sc1cccc(O)c1 [CBK093725] | 102.212 |
| Cc1cc(=O)oc2cc(OC(C)C(=O)Nc3sc4c(c3C(N)=O)CCCC4)ccc12 (stereo not drawn) [CBK268050] | 95.1562 |
| O=C(c1cc(F)cc(F)c1)N1CCC(c2n[nH]c3ncccc23)CC1 [CBK284909] | 98.5967 |
| Cc1cccn2c(=O)cc(CN3CCc4c(nc(C5CC5)n4C)C3)nc12 [CBK305256] | 24.4101 |
| O=[N+]([O-])c1ccccc1NC1OCC(O)C(O)C1O (stereo not drawn) [CBK262032] | 95.154 |
| COC(=O)c1ccc2cccnc2c1O [CBK017876] | 25.5269 |
| CCN(CC)CCN(Cc1ccc2c(c1)OCO2)C(=O)Nc1ccc(C)cc1 [CBK159059] | 73.9301 |
| CCCC(NC(=O)C1C=CCN1S(C)(=O)=O)c1cccs1 (stereo not drawn) [CBK282668] | 96.7012 |
| O=C(OCc1ccccc1)N1CCC(C2OCc3ccc(-c4ccc(Cl)c(Cl)c4)cc3O2)CC1 (stereo not drawn) [CBK144646] | 86.3484 |
| COc1ccc(CCCCN(C(=O)C(N)Cc2ccccc2)c2cccc3ccccc23)cc1OC (stereo not drawn) [CBK001032T] | 71.6183 |
| COc1ccc(S(=O)(=O)N2CCN(C(C(=O)O)c3ccc(C)cc3)CC2)cc1 (stereo not drawn) [CBK296753] | 81.9926 |
| FC(F)(F)c1cc(-c2cn3ccnc3c(NC3CCOCC3)n2)cc(C(F)(F)F)c1 [CBK037278] | 84.1892 |
| O=C(Cc1ccc(Cl)c(Cl)c1)N1CCN(C(=O)c2ccco2)CC1 [CBK144454] | 64.8236 |
| Cc1c(Nc2ncnc3sc4c(c23)CCCC4)c(=O)n(-c2ccccc2)n1C [CBK093912] | 76.7846 |
| COc1cc(-c2cncc(NCC(C)(C)CO)n2)cc(OC)c1OC [CBK037854] | 102.855 |

| SMILES | % of control remaining |
| --- | --- |
| CC(=O)OC1CCn2c1nc1cc(C(F)(F)F)ccc12 (stereo not drawn) [CBK115367] | 97.2922 |
| CCOC(=O)c1ccccc1NC(=O)CCC(=O)O [CBK261631] | 100.102 |
| CC(=O)N1CCN(c2c(-c3ccccc3)nnc3ccccc23)CC1 [CBK066889] | 99.3753 |
| Nc1nnc(SCC(=O)N2CCN(C(c3ccccc3)c3ccccc3)CC2)s1 [CBK266320] | 117.245 |
| c1coc(-c2cc3ncc4c(n3n2)CC2CCC4N2)c1 (stereo not drawn) [CBK284381] | 74.4105 |
| O=C(NCCc1ccc(Cl)cc1)C1(Cc2ccc(-c3cccnc3)cc2)CCOCC1 [CBK285589] | 66.241 |
| CC1(C)CCCN(Cc2nnnn2-c2ccc(S(C)(=O)=O)cc2)C1 [CBK306181] | 70.3929 |
| Oc1ccccc1CNC1(Cc2cc(-c3ccc(F)cc3)on2)COC1 [CBK289655] | 88.438 |
| COCCCN(Cc1ccccn1)Cc1c(F)cccc1F [CBK282959] | 99.8381 |
| c1ccc(Nc2nc(-c3ccc(N4CCOCC4)cc3)cn3ccnc23)cc1 [CBK066222] | 68.2914 |
| Cc1ccc(Nc2c([N+](=O)[O-])nn(-c3ccccc3)[n+]2[O-])cc1F [CBK268414] | 99.4273 |
| COc1cccn(CC(=O)N(C)CCc2scnc2C)c1=O [CBK306726] | 36.9414 |
| COC[C@H](C)Nc1ccc(C(=O)N2CCC(N3CCOCC3)CC2)cn1 [CBK306917] | 55.7674 |
| O=C(NC(=O)c1ccc(F)c(Cl)c1)Nc1nnc(C(F)(F)F)s1 [CBK076830] | 87.0686 |
| CCc1nc2ccc(C(=O)NCc3cccs3)cn2c1N(C)CC [CBK145492] | 63.4988 |
| CN(C)CCSc1cc(N2CCCC2)ncn1 [CBK105295] | 101.197 |
| Nc1nc2c(nc(SCCc3ccccc3)n2C2OC(CO)C(O)C2O)c(=O)[nH]1 (stereo not drawn) [CBK268686] | 83.502 |
| COCC(=O)N1CCN2C(=O)c3cc(-c4ccccc4F)ccc3NC(=O)[C@H]2C1 [CBK289587] | 110.474 |
| O=C(O)c1cccn1-c1cc(Cl)cc(Cl)c1 [CBK286932] | 89.2415 |
